# Data: the supplement of paper PMC9135407
# Values joined by “and” are separate entries in the source; they are usually repeats but may differ in a detail not shown here. Equal values may be shown once. Where a name gives a salt, the structure may show the parent alone. Out of some 5,800 compounds screened, about 620 (11%) showed activity.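 How the source made its calls: active = score above a cut-off or among the top three wells of a plate; in these data no inactive exceeds 0.85.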 Only a part is listed here, and it is no random draw.
# System: primary human hepatic stellate cells (donor 1)
# Experiment: scaled lipid accumulation score (0 = DMSO-like, 1 = nortriptyline-like); higher = stronger HSC inactivation (lipid re-accumulation), active = hit call of the paper
# Conditions: 48 h
# [1] = library stock concentration: 1 mM
# [2] = library stock concentration: 10 mM
# [3] = library stock concentration: 400 uM
# [4] = library stock concentration: 80 uM
# [5] = library stock concentration: 2 mM
# [6] = library stock concentration: 3.33 mM
structure (smiles),measurement,setting,value
Oc1cc2c(cc1O)CN(C(=S)NCCc1ccc(Cl)cc1)CCC2 [Capsazepine],scaled lipid accumulation score,[1],inactive: 0.038
same,scaled lipid accumulation score,[2],inactive: 0.015 and inactive: ≤ 0
NS(=O)(=O)C#Cc1ccccc1 [Pifithrin-mu],scaled lipid accumulation score,[2],active: 1.02
O=C(O)CCC(=O)O.O=C(O[C@H]1CN2CCC1CC2)N1CCc2ccccc2[C@@H]1c1ccccc1 [Solifenacin succinate],scaled lipid accumulation score,[2],active: 1.3
CCCCCCC(=O)OC1CC(C)(C)NC(C)(C)C1 [TMPH hydrochloride],scaled lipid accumulation score,[2],inactive: ≤ -0.055 and inactive: ≤ -0.001
CC[C@@H]1C(=O)N(C)c2cnc(Nc3ccc(C(=O)NC4CCN(C)CC4)cc3OC)nc2N1C1CCCC1,scaled lipid accumulation score,[3],active: 1.02
CN(C)Cc1cccc(N=C(c2ccccc2)c2c(O)[nH]c3cc(C(=O)N(C)C)ccc23)c1,scaled lipid accumulation score,[4],inactive: ≤ -0.009
same,scaled lipid accumulation score,[3],inactive: 0.07
same,scaled lipid accumulation score,[5],inactive: 0.08
same,scaled lipid accumulation score,[6],inactive: 0.325
same,scaled lipid accumulation score,[2],inactive: 0.535 and inactive: 0.688
NC[C@@H](O)c1ccc(O)c(O)c1 [L(-)-Norepinephrine bitartrate],scaled lipid accumulation score,[2],inactive: ≤ 0
C[C@@H]1C[C@H]2[C@@H]3C[C@H](F)C4=CC(=O)C=C[C@]4(C)[C@@]3(Cl)[C@@H](O)C[C@]2(C)[C@H]1C(=O)COC(=O)C(C)(C)C [Clocortolone pivalate],scaled lipid accumulation score,,inactive: ≤ 0
Nc1nc(Cl)nc2c1ncn2[C@@H]1O[C@H](COP(=O)(O)OP(=O)(O)OP(=O)(O)O)[C@H](O)C1O (stereo partly specified) [2-Chloroadenosine triphosphate tetrasodium],scaled lipid accumulation score,[2],inactive: 0.505
CC(C)(C)n1nc(-c2cccc3ccccc23)c2c(N)ncnc21 [1-Naphthyl PP1],scaled lipid accumulation score,[2],inactive: 0.016
COc1ccc2c(c1)c(CC(=O)N1CCOCC1)c(C)n2C(=O)c1ccc(Cl)cc1,scaled lipid accumulation score,[1],inactive: ≤ -0.021
same,scaled lipid accumulation score,[6],inactive: ≤ 0
same,scaled lipid accumulation score,[2],inactive: ≤ 0 and inactive: ≤ -0.006
OC(c1cc(C(F)(F)F)nc2c(C(F)(F)F)cccc12)C1CCCCN1 (stereo unspecified) [Mefloquine],scaled lipid accumulation score,library stock concentration: 4.8 mM,inactive: 0.805
same,scaled lipid accumulation score,[2],inactive: 0.525
OC(c1cc(C(F)(F)F)nc2c(C(F)(F)F)cccc12)C1CCCCN1 (stereo unspecified) [Mefloquine HCl],scaled lipid accumulation score,[6],inactive: 0.536
same,scaled lipid accumulation score,[2],inactive: ≤ -0.001
OC(c1cc(C(F)(F)F)nc2c(C(F)(F)F)cccc12)C1CCCCN1 (stereo unspecified) [Mefloquine hydrochloride],scaled lipid accumulation score,,inactive: ≤ 0
same,scaled lipid accumulation score,[2],inactive: 0.12
CC[C@H]1OC(=O)C[C@@H](O)[C@H](C)[C@@H](O[C@@H]2O[C@H](C)[C@@H](O)[C@H](N(C)C)[C@H]2O)[C@@H](CCN2C[C@H](C)C[C@H](C)C2)C[C@@H](C)C(=O)/C=C/C(C)=C/[C@@H]1CO[C@@H]1O[C@H](C)[C@@H](O)[C@@H](OC)[C@H]1OC [Tilmicosin],scaled lipid accumulation score,library stock concentration: 2.3 mM,inactive: ≤ 0
same,scaled lipid accumulation score,[6],inactive: 0.171
same,scaled lipid accumulation score,[2],inactive: 0.847
O=C1Cc2c([nH]c3ccc(Br)cc23)-c2ccccc2N1 [Kenpaullone],scaled lipid accumulation score,[1],inactive: ≤ 0
same,scaled lipid accumulation score,[6],inactive: ≤ 0
same,scaled lipid accumulation score,[2],inactive: ≤ -0.055 and inactive: 0.348
CCc1c(O)cc(O)c(C(=O)c2ccc(OCCN3CCOCC3)c(OC)c2)c1CC(=O)N(CCOC)CCOC,scaled lipid accumulation score,[6],inactive: 0.686
same,scaled lipid accumulation score,[2],inactive: 0.625
CNCCCC12CCC(c3ccccc31)c1ccccc12 [Maprotilline HCl],scaled lipid accumulation score,[2],active: 1.35
CNCCCC12CCC(c3ccccc31)c1ccccc12 [Maprotiline HCl],scaled lipid accumulation score,[6],inactive: 0.678
Cc1coc2c1C(=O)C(=O)c1c-2ccc2c1CCCC2(C)C [Tanshinone iia],scaled lipid accumulation score,library stock concentration: 6.8 mM,inactive: 0.251
Cc1coc2c1C(=O)C(=O)c1c-2ccc2c1CCCC2(C)C [Tanshinone IIA],scaled lipid accumulation score,[6],inactive: ≤ 0
same,scaled lipid accumulation score,[2],inactive: 0.377
same,scaled lipid accumulation score,library stock concentration: 17 mM,inactive: ≤ -0.021
CC(C)C[C@H](NC(=O)CNC(=O)c1cc(Cl)ccc1Cl)B(O)O,scaled lipid accumulation score,[6],inactive: 0.157
same,scaled lipid accumulation score,[2],inactive: 0.363
O=C(O[C@@H]1Cc2c(O)cc(O)cc2O[C@@H]1c1cc(O)c(O)c(O)c1)c1cc(O)c(O)c(O)c1 [(-)-Epigallocatechin Gallate],scaled lipid accumulation score,[1],inactive: ≤ 0
O=C(O[C@@H]1Cc2c(O)cc(O)cc2O[C@@H]1c1cc(O)c(O)c(O)c1)c1cc(O)c(O)c(O)c1 [Epigallocatechin gallate],scaled lipid accumulation score,[4],inactive: ≤ 0
same,scaled lipid accumulation score,[3],inactive: ≤ 0
same,scaled lipid accumulation score,[5],inactive: ≤ 0
same,scaled lipid accumulation score,[2],inactive: ≤ 0
CCOC(=O)[C@H](CCc1ccccc1)N[C@@H](C)C(=O)N1[C@H](C(=O)O)C[C@H]2CCCC[C@@H]21 [Trandolapril],scaled lipid accumulation score,[2],inactive: 0.059 and inactive: 0.177
CC(C)(CO)[C@@H](O)C(=O)NCCCO [Dexpanthenol],scaled lipid accumulation score,library stock concentration: 9.7 mM,inactive: 0.02
N#C[C@@H]1CCCN1C(=O)CNC12CC3CC(CC(O)(C3)C1)C2 [Vildagliptin (LAF-237)],scaled lipid accumulation score,[6],inactive: ≤ 0
same,scaled lipid accumulation score,[2],inactive: ≤ 0
CCN(CC)CCN(Cc1ccc(-c2ccc(C(F)(F)F)cc2)cc1)C(=O)Cn1c(SCc2ccc(F)cc2)nc(=O)c2c1CCC2,scaled lipid accumulation score,[6],inactive: 0.746
same,scaled lipid accumulation score,[2],inactive: 0.058
CN1CCN(C2=Nc3cc(Cl)ccc3Nc3ccccc32)CC1 [Clozapine],scaled lipid accumulation score,[2],active: 0.977
CCOc1ccn(-c2ccc(F)cc2)c(=O)c1C(=O)Nc1ccc(Oc2ccnc(N)c2Cl)c(F)c1,scaled lipid accumulation score,[4],inactive: ≤ -0.009
same,scaled lipid accumulation score,[3],inactive: ≤ -0.009
same,scaled lipid accumulation score,[5],inactive: 0.004
same,scaled lipid accumulation score,[6],inactive: ≤ 0
same,scaled lipid accumulation score,[2],inactive: ≤ 0 and inactive: ≤ -0.009
CCn1cc(-c2ccnc3[nH]c(-c4cccc(CN(C)C)c4)cc23)c(-c2ccc(NC(=O)N(C)C)cc2)n1,scaled lipid accumulation score,[4],inactive: ≤ 0
same,scaled lipid accumulation score,[3],inactive: ≤ 0
same,scaled lipid accumulation score,[5],inactive: 0.222
[Cl-].[Li+] [Lithium Chloride],scaled lipid accumulation score,[2],inactive: ≤ -0.07
CN1C(=O)CC(C)(c2ccccc2)C1=O (stereo unspecified),scaled lipid accumulation score,[2],inactive: ≤ 0
CCN(CC)CCNC(=O)c1ccc(NC(C)=O)cc1 [N-Acetylprocainamide hydrochloride],scaled lipid accumulation score,[2],inactive: ≤ 0
CCN(CC)CCNC(=O)c1ccc(NC(C)=O)cc1 [Acecainide hydrochloride],scaled lipid accumulation score,library stock concentration: 6.4 mM,inactive: ≤ 0
CCCCCCN(CCCCCC)C(=O)Cc1c(-c2ccc(F)cc2)[nH]c2ccccc12,scaled lipid accumulation score,[2],inactive: 0.028
"CCCCCCN(CCCCCC)C(=O)Cc1c(-c2ccc(F)cc2)[nH]c2ccccc12 [N,N-Dihexyl-2-(4-fluorophenyl)indole-3-acetamide]",scaled lipid accumulation score,[2],inactive: 0.151
O=S(=O)(NCCNCC=Cc1ccc(Br)cc1)c1cccc2cnccc12,scaled lipid accumulation score,[6],inactive: 0.01
same,scaled lipid accumulation score,[2],inactive: 0.542
OC1CCC(Nc2nc(-c3ccccc3)nc3[nH]ccc23)CC1 (stereo unspecified),scaled lipid accumulation score,[2],inactive: ≤ -0.001
CC(=O)NNC(=O)N1Cc2ccccc2Oc2ccc(Cl)cc21,scaled lipid accumulation score,[2],inactive: ≤ 0 and inactive: ≤ -0.006
CNC[C@H](O)c1cccc(O)c1 [Phenylephrine HCl],scaled lipid accumulation score,[6],inactive: 0.013
same,scaled lipid accumulation score,[2],inactive: ≤ 0
CNC[C@H](O)c1cccc(O)c1 [Phenylephrine hydrochloride],scaled lipid accumulation score,[2],inactive: 0.059 and inactive: 0.138
OCc1ccc(-c2ccc(-c3ccc(CO)s3)o2)s1,scaled lipid accumulation score,[6],inactive: 0.238
same,scaled lipid accumulation score,[2],inactive: 0.515
CCOC(=O)Nc1ccc2c(c1)N(C(=O)CCN1CCOCC1)c1ccccc1S2 [Moricizine hydrochloride],scaled lipid accumulation score,,inactive: 0.015
O=c1c(-c2ccc(O)cc2)coc2cc(O)cc(O)c12 [Genistein],scaled lipid accumulation score,[1],inactive: 0.008
same,scaled lipid accumulation score,[6],inactive: ≤ 0
same,scaled lipid accumulation score,[2],inactive: ≤ 0 and inactive: ≤ -0.07 and inactive: ≤ -0.006
same,scaled lipid accumulation score,library stock concentration: 19.2 mM,inactive: 0.047
Cc1cc(N2CCOCC2)ccc1Nc1nc(NC2CCCCC2)c2[nH]cnc2n1,scaled lipid accumulation score,[6],inactive: 0.091
same,scaled lipid accumulation score,[2],inactive: ≤ 0
Nc1c2c(nc3c1CCC3)CCCC2,scaled lipid accumulation score,[2],inactive: ≤ 0
CNCC[C@H](Oc1cccc2ccccc12)c1cccs1 [Duloxetine],scaled lipid accumulation score,[2],active: 1.39
O=C(O)c1ccc(Nc2ncc3c(n2)-c2ccc(Cl)cc2C(c2c(F)cccc2F)=NC3)cc1,scaled lipid accumulation score,[4],inactive: ≤ 0
same,scaled lipid accumulation score,[3],inactive: ≤ 0
same,scaled lipid accumulation score,[5],inactive: ≤ 0
same,scaled lipid accumulation score,[6],inactive: ≤ 0
same,scaled lipid accumulation score,[2],inactive: ≤ 0
O=C1C=CC(=C(c2ccc(O)cc2)c2ccc(O)cc2)C=C1 [Rosolic acid],scaled lipid accumulation score,[2],inactive: 0.399
C[C@@H](O)CCC[C@H](O)/C=C/C1=C(C/C=C\CCCC(=O)O)C(=O)CC1 [19(R)-hydroxy Prostaglandin B2],scaled lipid accumulation score,[1],inactive: ≤ 0
CN(C)CCCSc1ccccc1NC(=O)/C=C/c1ccccc1 [Cinanserin],scaled lipid accumulation score,library stock concentration: 5.9 mM,inactive: 0.272
same,scaled lipid accumulation score,[2],inactive: ≤ 0
CN(C)CCCSc1ccccc1NC(=O)/C=C/c1ccccc1 [Cinanserin hydrochloride],scaled lipid accumulation score,[2],inactive: 0.601
Cl.Cl.OCCN1CCN(CC/C=C2/c3ccccc3Sc3ccc(C(F)(F)F)cc32)CC1 [cis-(Z)-Flupenthixol dihydrochloride],scaled lipid accumulation score,[2],active: 1.01
"CC(C)(C)c1ccc(S(=O)(=O)Nc2ccc(-n3ccnc3)cc2)cc1 [Stem-Cell Factor/c-Kit Inhibitor, ISCK03]",scaled lipid accumulation score,[6],inactive: ≤ 0
COc1cc2c(cc1OC)-c1cc3ccc(OC)c(OC)c3c[n+]1CC2 [Palmatine chloride],scaled lipid accumulation score,,inactive: 0.034
same,scaled lipid accumulation score,[6],inactive: 0.003
same,scaled lipid accumulation score,[2],inactive: ≤ 0
COC(=O)[C@H]1[C@H]2C[C@@H]3c4[nH]c5cc(OC)ccc5c4CCN3C[C@H]2C[C@@H](OC(=O)c2cc(OC)c(OC)c(OC)c2)[C@@H]1OC [Reserpine],scaled lipid accumulation score,,inactive: ≤ 0
same,scaled lipid accumulation score,[2],inactive: 0.574 and inactive: 0.771
